Data taken from article PMC9574860, “Chemical Toolkit for PARK7: Potent, Selective, and High-Throughput” (Journal of Medicinal Chemistry, 2022).
Out of some 7,900 compounds screened, about 400 (5.1%) showed an effect of 50% or more. The list shows a part of the results.

Target: Parkinson's disease protein 7 (PARK7/DJ1) (human, UniProt Q99497)
Experiment: primary screen, percent inhibition; read as competition with a fluorescent probe by fluorescence polarization; higher = more effect of the substance
Settings: 100 µM
Outline: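 Covalent fragments at 100 μM final were incubated 2 h with 0.2 μM PARK7, then 20 nM probe JYQ-107 added for a further 2 h. Fluorescence polarization read at 480/520 nm; relative FP loss versus reference controls gave remaining enzyme activity.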

Parkinson's disease protein 7 (PARK7/DJ1), sequence (Q99497 whole entry, looked up): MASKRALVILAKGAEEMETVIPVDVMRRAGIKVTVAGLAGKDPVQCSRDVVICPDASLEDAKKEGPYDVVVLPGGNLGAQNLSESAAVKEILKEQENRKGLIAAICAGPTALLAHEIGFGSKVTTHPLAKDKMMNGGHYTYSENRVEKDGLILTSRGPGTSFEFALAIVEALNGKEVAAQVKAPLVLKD

SMILES	Inhibition %
CC1(C)OB(c2ccc(S(C)(=O)=O)cc2F)OC1(C)C	5.23%
C=CC(=O)N1CCOC(c2cccc(C(F)(F)F)c2)C1 (stereo not drawn)	22.3%
C=CC(=O)N1CC2CCC(C1)O2	11.7%
C=CC(=O)N1CC(Oc2ccccc2)C1	9.92%
CC1(C)OB(c2cc(F)ccc2C#N)OC1(C)C	-4.41%
C=CC(=O)N1CCCCCCCC1	7.56%
C=CC(=O)N1CC2(CCOCC2)C1c1ccccc1 (stereo not drawn)	11.9%
COc1cccc(CCNC(=O)CCl)c1	25.9%
CCCc1cc(NC(=O)CCl)n(-c2ccccc2)n1	31.6%
C=CC(=O)N[C@H]1CCCC[C@H]1CC(F)(F)F	8.64%
Cc1ccccc1CC(C)NC(=O)CCl (stereo not drawn)	3.74%
O=C(Oc1ccc(F)cc1)N1CCCCC1	9.05%
CCc1ccc(C(=O)Cn2cnc(C#N)n2)cc1	4.24%
C=CC(=O)N[C@H]1COC[C@H]1OC (racemic)	0.0503%
C=CC(=O)NCC1(c2cccc(F)c2)CC1	5.69%
C=CC(=O)N1CCOC(c2ccccc2)C1 (stereo not drawn)	4.98%
Cc1nccn1CCCSc1cccnc1C#N	1.92%
CC1(C)OB(c2cc(F)cc(Cn3ccnc3)c2)OC1(C)C	4.68%
COC[C@@H]1C[C@H](OC)CN1Cc1cc(C#N)n(C)c1	6.92%
N#Cc1cccc(C(=O)NNC(=O)CCl)c1	20.2%
O=S(=O)(F)c1cccc(CO)c1	96.8%
CC1CC(N2CCCCC2Cn2cncn2)C(=O)O1 (stereo not drawn)	1.57%
O=C(C=Cc1cscn1)N1CCOc2cc(F)ccc21	5.46%
C=CC(=O)Nc1ccc2nc(OC)sc2c1	6.55%
O=C(Nc1ncc(S(=O)(=O)F)s1)c1ccoc1C1CC1	3.65%
C=CC(=O)N1CC(NC(=O)NC)C1	20.1%

SMILES	Inhibition %
C=CC(=O)N1CC2CC3CC2C1C3OC (stereo not drawn)	12.1%
Cc1ccc(NC(=O)CN2CCSC2=O)nc1	4.53%
Cc1cc(C)c(C#N)c(SCC2OCCO2)n1	4.24%
CN1CCN(CCCCl)C1=O	3.97%
C=CC(=O)N1CCN(c2cncc3nc(C)nn23)CC1	6.75%
O=C1CC(c2ccccc2)=NO1	18.1%
CC1(C)OB(c2cnn(-c3ccccc3)c2F)OC1(C)C	6.42%
O=S(=O)(C=Cc1ccccc1)Nc1ccccc1F	12.9%
O=c1onc(-c2ccccc2)n1Cc1ccncc1	1.3%
CN1C=CC=CC1=C(C#N)C(=O)Nc1ccc(Cl)cc1	12.9%
CCCOCc1nc(-c2cccc(B(O)O)c2)no1	10.1%
C=CC(=O)NCc1cc(Cl)cc2c1OCC2	-1.56%
Cn1ccc(NS(=O)(=O)C=Cc2ccccc2)n1	11.1%
CN1CCCN(C(=O)c2ccc(S(=O)(=O)F)cc2)c2ccccc21	17.9%
O=C(CCCl)N1CCOCC1	5.96%
Cc1noc(C2CCN(Cc3cc(C#N)n(C)c3)C2)n1 (stereo not drawn)	6.79%
Cc1cccc(OCCn2cnc(C#N)n2)c1	3.5%
O=c1oc(-c2ccc(F)cc2)nn1CC1CCCCO1 (stereo not drawn)	5.66%
Cc1nc(C#N)c(N2CCN(c3ccccc3)CC2)o1	8.89%
COc1ccc(C=C(C#N)C(=O)N2CCCC2)c(OC)c1	10.7%
C=CC(=O)NC1CC(=O)N(C2CC2C)C1 (stereo not drawn)	6.12%
Cl.Cl.O=C1CCC(=O)N1CCN1CCNCC1	5.93%
OB(O)c1cc2cccc(Cl)c2s1	16.2%
O=C(NCC1CCOCO1)c1cccnc1S (stereo not drawn)	6.16%
O=C(CCl)N1CCN(c2ccc([N+](=O)[O-])cc2)CC1	7.53%
Cc1c(C#N)nn(-c2ccccc2)c1N	0.984%

SMILES	Inhibition %
Sc1nncc2ccccc12	8.48%
C=CC(=O)NC1(C)CN(C(C)=O)C1	10.6%
CC(C)Cc1ccc(C(C)NC(=O)CCl)cc1 (stereo not drawn)	9.76%
O=C(Cn1nc(-c2ccccc2)oc1=O)N1CCSCC1	5.67%
Cl.O=C(CCl)Nc1ccncc1	14.4%
CSC1(C(=O)Nc2cccc(S(=O)(=O)F)c2)CC1	101%
N#Cc1ncn(CC(=O)c2cc(F)ccc2F)n1	9.54%
C=CC(=O)NCCc1cnn(C)c1	3.91%
N#Cc1ncn(CC(=O)C23CC4CC(CC(C4)C2)C3)n1	1.82%
CCOc1cc(C=C(C#N)C(=O)NC(C)C)cc(Cl)c1O	5.09%
C=CC(=O)NCC1CCN(c2ccccc2Cl)C1 (stereo not drawn)	7.51%
O=C(CN1CCSC1=O)N1CCCC(C(F)(F)F)C1 (stereo not drawn)	1.18%
COc1ccccc1-c1csc(CN2C(=O)CCC2=O)n1	11.5%
CC(=O)Nc1ccc(OC(=O)N2CCOCC2)cc1	6.01%
OB(O)c1ccc(OC2CCOCC2)cc1	3.03%
C=CC(=O)Nc1cnn(C2CCOCC2)c1C	8.19%
Cc1ccc(NC(=O)CN2CCSC2=O)cc1C	1.36%
C=CCn1c(S)nc2ncccc2c1=O	3.48%
N#Cc1cc(N2CCC(Cn3cccn3)CC2)ccn1	6.57%
CCCOc1cncc(B2OC(C)(C)C(C)(C)O2)c1	5.23%
Cn1cc(C=CC(=O)N2CCC(C(N)=O)CC2)cn1	7.17%
Cc1ccc2oc(C#N)nc2c1	9.34%
CCOc1cc(C)ccc1S(=O)(=O)n1cccn1	0.108%
N#Cc1cnc2cnccn12	19.8%
N#Cc1ncn(CCOc2ccccc2)n1	0.564%
CC1CC(N2CCOC(Cn3cccn3)C2)C(=O)O1 (stereo not drawn)	3.41%
